Assay results taken from PubChem BioAssay AID686978 (National Center for Advancing Translational Sciences (NCATS), 2013).
Values joined by “and” are separate entries in the source; they are usually repeats but may differ in a detail not shown here. Identical values can stand only once. Screen size: about 420,000 compounds; about 64,000 (15%) were called active. The shares of active, inactive and inconclusive entries below differ from those in the screen. Calls follow the shape of the dose curve; as a rule, active = well fitted inhibition curve with a large enough effect; inconclusive = small, poorly fitted or top-dose-only effect; inactive = flat fitted curve, though single readings scatter. Potencies of inconclusive entries are doubtful fits and often do not repeat.

assay: qHTS for Inhibitors of human tyrosyl-DNA phosphodiesterase 1 (TDP1): qHTS in cells in absence of CPT; conditions: DT40 Tdp1-/- hTDP1 cells, no CPT, ATP luminescence, 48 h; activity change, negative = growth inhibition: at 46.2 µM (top of the series) unless noted; also: nearly all actives have a fitted effect of over 55% in size
Procedure, shortened: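 Growth kinetics read by CellTiter-Glo luminescence after ≥48 hr at 37 °C. Cells: DT40 Tdp1-/- stably carrying human TDP1, 400 per well, compound exposure in the absence of CPT (DMSO vehicle).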
% is scaled to controls: 0 for no effect and ±100 for the full control effect; potency is read from the fitted curve at half-maximal effect; tags tell the direction and shape of the fitted curve.

Row | Structure (SMILES) | activity change, negative = growth inhibition | Potency
1 | CC1CCCCC1NC(=O)c1cn(C)c2ccc(S(=O)(=O)N3CCOCC3)cc2c1=O (stereo unspecified) | inactive: 8.68% | –
2 | S=C(NCCc1ccccc1)N/N=C/c1ccc(Cl)cc1 | – | inconclusive: 29.1 µM [inhibitor, single point]
3 | c1ccc2c(CCN3CCNC[C@H]3Cc3cccc4ccccc34)cccc2c1 | – | inconclusive: 20.6 µM [inhibitor, single point]
4 | Cc1ccc(-c2c(C(=O)N/N=C/c3c[nH]c4ccccc34)nnn2-c2nonc2N)cc1 | – | active: 16.4 µM
5 | CC(=O)N1CCCc2cc(S(=O)(=O)N3CCCC(C(=O)Nc4ccccc4C)C3)ccc21 (stereo unspecified) | inactive: -9.7% | –
6 | CCCS(=O)(=O)NC(=O)C1(C)CCCN(C(=O)c2ccc(F)c(Cl)c2)C1 (stereo unspecified) | inactive: 0.1% | –
7 | Cc1nccn1C(c1ccccc1)c1ccccc1 | – | inconclusive: 20.6 µM [inhibitor, single point]
8 | CNc1cc(N2CCN(S(=O)(=O)N(C)C)CC2)ccc1[N+](=O)[O-] | inconclusive: -38.4% [inhibitor] | –
9 | Cc1oc(-c2ccc(Cl)cc2)nc1CN1CCCC(C(=O)N2CCOCC2)C1 (stereo unspecified) | – | inconclusive: 18.4 µM [inhibitor, partial curve]
10 | CCCc1[nH]nc2c1C(c1cccnc1)C(C#N)=C(N)O2 (stereo unspecified) | inactive: 1.81% | –
11 | O=C(Cc1ccc(-n2c(=O)c3ccccc3n(Cc3ccc(F)cc3)c2=O)cc1)NCC1CCCO1 (stereo unspecified) | – | inconclusive: 14.6 µM [inhibitor, single point]
12 | CCOC(=O)NC(NC(=S)Nc1ccc(OC)cc1)C(Cl)(Cl)Cl (stereo unspecified) | inactive: -1.59% | –
13 | CC1(C)Cc2cccc(OCC(=O)N3CCN(c4cccc(Cl)c4)CC3)c2O1 | – | inconclusive: 16.4 µM [inhibitor, single point]
14 | O=C(Nc1ccc(NC(=O)c2ccco2)c(Cl)c1)c1ccccc1 | – | active: 23.1 µM
15 | CC1CN(C(=O)Nc2ccc(C(=O)NCc3cccc(F)c3)cc2)c2ccccc2S1 (stereo unspecified) | – | active: 18.4 µM
16 | COc1ccc(C(CNC(=O)c2cc(S(=O)(=O)Nc3cccc(C)c3)ccc2C)N2CCOCC2)cc1 (stereo unspecified) | – | inconclusive: 23.1 µM [inhibitor, single point]
17 | O=C(Nc1ccc(C(F)(F)F)cc1)C1CCCN(c2cnccn2)C1 (stereo unspecified) | – | inconclusive: 29.1 µM [inhibitor, single point]
18 | Cc1sc(N)nc1-c1cccs1 | inactive: -8.21% | –
19 | O=C(Nn1c(COc2ccccc2)nc2ccccc2c1=O)C(Cl)(Cl)Cl | inconclusive: -32.3% [inhibitor] | –
20 | C=C[C@@H]1c2c(F)cccc2N(S(=O)(=O)c2ccc(C)cc2)[C@H](c2ccc(C(=O)OC)cc2)C1(C#N)C#N | – | inconclusive: 14.1 µM [inhibitor, partial curve] and inconclusive: 16.4 µM [inhibitor, single point]
21 | O=C(/C=C/c1ccc(OCCCF)cc1)Nc1ccnc(-c2ccncc2)n1 | – | active: 23.1 µM
22 | CC(=O)N1CCc2c(sc(NC(=O)c3ccc([N+](=O)[O-])o3)c2C(N)=O)C1 | – | active: 7.31 µM
23 | Cn1cc(Cl)c(C(=O)OCC(=O)Nc2nc(-c3ccc(Br)cc3)cs2)n1 | – | inconclusive: 29.1 µM [inhibitor, single point]
24 | O=C(/C=C/c1ccco1)Nc1cccc(-c2nc3ccccc3[nH]2)c1 | – | active: 23.1 µM

Row | Structure (SMILES) | activity change, negative = growth inhibition | Potency
25 | O=c1c(S(=O)(=O)c2ccccc2)cn(Cc2ccccc2)c2cc(N3CCOCC3)c(F)cc12 | – | inconclusive: 18.4 µM [inhibitor, single point]
26 | COc1ccccc1CC(=O)Nc1cccc2c1CCCC2 | – | inconclusive: 23.1 µM [inhibitor, single point]
27 | C[C@H]1[C@H]2CC[C@H]3[C@@H]4CC=C5C[C@@H](N(C)C)CC[C@]5(C)[C@H]4CC[C@]23CN1C | – | inconclusive: 16.4 µM [inhibitor, single point]
28 | CC(=NNC(=S)N1CC2CCC(CC2)C1)c1ccccn1 | – | active: 0.0184 µM
29 | CC(NC(=O)CN(c1ccc(Br)cc1)S(C)(=O)=O)c1ccccc1 (stereo unspecified) | – | inconclusive: 23.1 µM [inhibitor, single point]
30 | COc1cccc(NC(=O)C2(C)CCN2Cc2cccc(OC)c2F)c1 (stereo unspecified) | – | active: 20.6 µM
31 | COc1cc2cncc(Cc3ccccc3)c2cc1O | – | inconclusive: 20.6 µM [inhibitor, single point]
32 | O=C(CSc1n[nH]c(=O)[nH]c1=O)Nc1ccc(SC(F)F)cc1 | inactive: 8.71% | –
33 | CCCN(CCC)Cc1cc(=O)oc2cc(C)c(Cl)cc12 | – | inconclusive: 29.1 µM [inhibitor, single point]
34 | COC(=O)CN1C(=O)CSc2ccc(S(=O)(=O)Nc3cccc(Cl)c3C)cc21 | – | inconclusive: 29.1 µM [inhibitor, single point]
35 | CS(=O)(=O)N1CCc2cc(-c3csc(NCC4CCCO4)n3)ccc21 (stereo unspecified) | inactive: -27% | –
36 | CC(C)(C)c1ccc(CC(=O)N2CCC2(C)C(=O)Nc2cccc3cccnc23)cc1 (stereo unspecified) | – | active: 23.1 µM
37 | CSCC[C@H](NC(=O)N1CCn2c1nc1ccccc12)C(=O)NCc1ccc(C)cc1 | – | inconclusive: 23.1 µM [inhibitor, single point]
38 | COC(=O)[C@@H](NC(=O)Nc1ccc(S(N)(=O)=O)cc1)C(C)C | inactive: -29% | –
39 | COC(=O)c1ccccc1NC(=S)NC(=O)c1ccccc1F | inconclusive: -30.1% [inhibitor] | –
40 | CNC(=O)c1[nH]cnc1C(=O)N[C@@H](CC(C)C)C(=O)OC(C)(C)C | – | inconclusive: 20.6 µM [inhibitor, single point]
41 | CCC(=O)c1ccc(OCC(=O)O)cc1 | inactive: 9.51% | –
42 | CC(=O)c1ccc(N2CCN(C(=O)c3cc4c(s3)CCCC4)CC2)cc1 | – | inconclusive: 25.9 µM [inhibitor, single point]
43 | CC(=O)c1ccc(N2CCN(C(=O)CCS(=O)(=O)c3ccc4c(c3)oc(=O)n4C)CC2)cc1 | – | inconclusive: 29.1 µM [inhibitor, single point]
44 | COc1cc2[nH]c(C(=O)N3CC(C)OC(C)C3)cc2c(OC)c1OC (stereo unspecified) | inactive: -20.8% | –
45 | COc1ccc(OC)c(C(=O)c2coc3ccc(OC(C)=O)cc23)c1 | – | inconclusive: 32.6 µM [inhibitor, single point]
46 | Cc1ccccc1Oc1cc(NC(=O)CCCn2nc(C)c([N+](=O)[O-])c2C)cc([N+](=O)[O-])c1 | – | inconclusive: 29.1 µM [inhibitor, single point]
47 | Cc1ccc(C(=O)OCC(=O)Nc2nc(-c3ccccc3)cs2)cc1NC(=O)c1ccco1 | – | inconclusive: 18.4 µM [inhibitor, single point]
48 | COc1ccc2c(c1)CCc1c(C(=O)N3CCc4ccccc4C3)noc1-2 | inconclusive: -31.1% [inhibitor] | –

Row | Structure (SMILES) | activity change, negative = growth inhibition | Potency
49 | C[C@H](NC(=O)c1ccco1)C(=O)Nc1cc(S(=O)(=O)N2CCCC2)ccc1OCC(F)(F)F | inactive: -2.47% | –
50 | CSCCCNC(=S)N1CCN(S(=O)(=O)c2cccc(C(F)(F)F)c2)CC1 | inconclusive: -30.1% [inhibitor] | –
51 | CCCCC(=NCCc1c(C)[nH]c2ccccc12)C1=C(O)CC(c2ccccc2)CC1=O (stereo unspecified) | – | active: 5.17 µM
52 | FC(F)C(F)(F)C(F)(F)C(F)(F)c1cc(-c2ccccc2)n[nH]1 | – | inconclusive: 16.4 µM [inhibitor, partial curve]
53 | CC(=O)Nc1cccc(-c2nc3ccccc3o2)c1 | – | inconclusive: 32.6 µM [inhibitor, single point]
54 | CCOC(=O)CNC(=O)CNC(=O)c1ccc(OC(C)C)cc1 | inactive: -1.58% | –
55 | Cc1ccc(/C=C/c2nc3ccccc3[nH]2)o1 | – | active: 16.4 µM
56 | Cc1ccc(S(=O)(=O)NCC(=O)NCC2CCCCC2)cc1C | inactive: -3.72% | –
57 | CC(=O)N1c2ccc(S(=O)(=O)N3CCC(C(=O)Nc4cc(C)ccn4)CC3)cc2CC1C (stereo unspecified) | – | inconclusive: 16.4 µM [inhibitor, single point]
58 | COC(=O)c1ccc(CSc2nc(N3CCOCC3)c3c(c2C#N)CC(C)(C)OC3)o1 | – | inconclusive: 25.9 µM [inhibitor, partial curve, poor fit]
59 | COCCn1c(C)cc(C(=O)COc2cccnc2[N+](=O)[O-])c1C | inactive: -5.72% | –
60 | CCN(c1ccc2c(c1)OCO2)S(=O)(=O)c1cc(Br)cc2c1N(C(C)=O)CC2 | – | inconclusive: 25.9 µM [inhibitor, partial curve]
61 | Cc1ccc(C2CC(c3ccc(Br)cc3)=NN2C(=O)CSC2=NN3CCCC(=O)N=C3S2)cc1 (stereo unspecified) | – | inconclusive: 16.4 µM [inhibitor, single point]
62 | O=c1c(Cl)c(N2CCOCC2)cnn1-c1nc2ccccc2[nH]1 | inactive: -0.0213% | –
63 | Cc1nc(CC(=O)N/N=C/c2ccc(OCC(=O)O)cc2)cs1 | inactive: 44.6% | –
64 | CCSc1ncc(Cl)c(C(=O)Nc2sc3c(c2C(=O)NC)CCCC3)n1 | – | inconclusive: 20 µM [inhibitor, single point]
65 | COc1cccc(CNC(=S)Nc2cc(C)ccc2C)c1 | – | active: 25.9 µM
66 | CCc1nc(CNC(=O)C2CCC(=O)N(Cc3cccc(OC)c3)C2)no1 (stereo unspecified) | inactive: 26.4% | –
67 | COc1cccc2ccc(/C=C/c3ccc4c(c3)OCO4)nc12 | – | inconclusive: 22.4 µM [inhibitor, single point]
68 | O/N=C(/c1ccccc1)c1cc2cc(Br)cc(Br)c2o1 | – | inconclusive: 16.4 µM [inhibitor, partial curve, poor fit]
69 | CC(=O)Nc1ccc(S(=O)(=O)NC2CC(=O)N(c3ccc4c(c3)OCCO4)C2)cc1 (stereo unspecified) | inactive: -17.6% | –
70 | CC1CC(C)CN(C(=O)CSCC(=O)Nc2nc(-c3cccs3)cs2)C1 (stereo unspecified) | – | inconclusive: 18.4 µM [inhibitor, partial curve]
71 | Nc1ccc(C(=O)O)c(O)c1 | – | inactive
